# In article PMC12136788:
# The list shows a part of the results.
# B1: chrX:98838459:98838460:+_ENSMUSG00000034160_ENSMUST00000044475|mus_hu|motif|central (ssRNA)
# RNA: GGGAGUUCUACAGUCCGACGAUCCCCCAAAUUCGAAUAAGCUUCUGCCAGAAGGGGGUUCUGUUUAAUUGCCAGAGUGCGGAAGUGAGCAGAUCUGUCCAGCCUUCGACACUGGAAGUGUAUAGAUGAAAGUAAUAAAAGCACCAACAGAGGAUUGAGCAUCA
# B2: chrX:140365796:140365797:-_ENSMUSG00000031285_ENSMUST00000033642|mus_mus|mus_mus_mus_hu_False|1_98 (ssRNA)
# RNA: GGGAGUUCUACAGUCCGACGAUCCUUCUCAUUACUCAAUGCCUGCAAGGUUCUGGUUCGGUAGAAGCUACAGUGGGCGCUGUGAGUGGGGCUAGGCAACCCAUUCAUCCGGGAGCCUCGCAUGUUCCUGGAUGUCUUGUCUCGCAACAGAGGAUUGAGCAUCA
# B3: chr9:128067362:128067363:+_ENSG00000165219_ENST00000394104|hu_hu|motif|central (ssRNA)
# RNA: GGGAGUUCUACAGUCCGACGAUCAAACUUUCCAAGGCUGCUCUUUGUUCGGGGAUCUCCCUCUUCAGAGCCAGUCAUUGCGGACUGCUGCAAAAGGCGGCCUACCUGCAUCAGAUUAAAUCGUGCUACUUCAUUAAUAGGAGCCAACAGAGGAUUGAGCAUCA
# B4: chr5:172341789:172341790:+_ENSG00000113719_ENST00000393784|hu_mus|FALSE|FALSE (ssRNA)
# RNA: GGGAGUUCUACAGUCCGACGAUCGGGAACCUUGUUGAUGCUGAACUGGCCCUCGAAGCGGCAGCCGGCUCCAUUAUUCAGCGGGAUCUUCAUGGAAUUGUCGAUGUGGCCCACUUCGUGUCUGCCCAUCUCAUCUUGGAUGUCCAACAGAGGAUUGAGCAUCA
# B5: chr2:179988524:179988525:-_ENSG00000187231_ENST00000428443|hu_mus|FALSE|FALSE (ssRNA)
# RNA: GGGAGUUCUACAGUCCGACGAUCUAAAGUUUGCUGAAUCGAUGCUCCAUCAGCUGGUGCUACAUCUACGCACAACAUCCCUAAUAAGCCGUCCAACUGCUGAGACAAAUCUUGGGCCACACCAUGAAAUUCCAAAGCUGCCUGCAACAGAGGAUUGAGCAUCA
# B6: chr7:135839355:135839356:+_ENSMUSG00000042105_ENSMUST00000151237|mus_hu|FALSE|FALSE (ssRNA)
# RNA: GGGAGUUCUACAGUCCGACGAUCCUCCUAGGUUUACAUUGUAUAGGCAGCAGAGUAUUUUUAAUGUGUUCAAGUAGAAUACGGGGAAAAUUAGGAUCAAAUGAGAAUUCAUUUCUCUAGUGUCAAUAACCCUCAACUCCUCAGCAACAGAGGAUUGAGCAUCA
# B7: chr8:117878989:117878990:-_ENSG00000164754_ENST00000297338|hu_hu|hu_hu_hu_mus_True|1_98 (ssRNA)
# RNA: GGGAGUUCUACAGUCCGACGAUCCCAGAGGCCCUCGUUUACUGAGAACAAAAUGUGCGUAGAACAUUUUUCUUAUUUGCUAUGAAAUAAGAAGAAACCUGGAUCUCGGCGGGGAGCCGGGAGGGGUGGGUGGCCCGGGGGAGGCAACAGAGGAUUGAGCAUCA
# B8: chr15:72338896:72338897:-_ENSG00000066933_ENST00000356056|hu_mus|FALSE|FALSE (ssRNA)
# RNA: GGGAGUUCUACAGUCCGACGAUCGAUAUAUUCGCAAUGUGUGUUCAUUAUCCUCAAAGCGUCGUCUUCCUCCAUCACUUACAUUCAUAUUGGAUCUUGUCCCAUCAGAAAGGACAGUAUGUGGUCAGGACUGGGCAAACCAUUCAACAGAGGAUUGAGCAUCA
# B9: 86629119_86633875_508_CDS_ENSG00000145715_ENST00000456692|human|control|control (ssRNA)
# RNA: GGGAGUUCUACAGUCCGACGAUCUUGUUCAUCUGUUCUUAAAUUUGUAACCCACAUCCAUCCAUCUUCUAAUUCAUUAUGAACAAUGAACAUAUCUCCUUUUAAGAAACUUAUUUCAUCAGUGUCUGGUACUUUUGUGUAAGGCAACAGAGGAUUGAGCAUCA
# B10: chr5:125867735:125867736:-_ENSMUSG00000008348_ENSMUST00000136312|mus_hu|FALSE|FALSE (ssRNA)
# RNA: GGGAGUUCUACAGUCCGACGAUCGGUCUUACCAGUCAGGGUCUUCACGAAGAUCUGCAUCCCACCUCUGAGACGGAGCACCAGGUGCAGGGUAGACUCUUUCUGGAUGUUGUAGUCAGACAGGGUGCGCCCAUCUUCCAGCUGCAACAGAGGAUUGAGCAUCA
# B11: chr17:46686077:46686078:-_ENSMUSG00000015605_ENSMUST00000015749|mus_hu|FALSE|FALSE (ssRNA)
# RNA: GGGAGUUCUACAGUCCGACGAUCGCGGGCGGAUCAUUCACUCUUGGUGCUGUGGGCGGUGUCCAGGUUCACCACCUGUAGCUCGGUGAGGUUGCUGCUGCUCCCGGCCUGCUGCCCUAUCACAGCCAUCUGGUGGAGCUGAACCAACAGAGGAUUGAGCAUCA
# B12: chr2:232319755:232319756:-_ENSG00000115053_ENST00000322723|hu_hu|FALSE|FALSE (ssRNA)
# RNA: GGGAGUUCUACAGUCCGACGAUCAAAAGUUUAUAUGAAUAUCCAGUCAAAACCAACACGGUAUUGCCCUUGAAAUGUUAACUAGACGGAUUUCCAAGGAGACCACAGGACUGUAUACUGUCUUGGAAUGUCCUCAGAAGGCUCCAACAGAGGAUUGAGCAUCA
# B13: 120456670_120457671_4033_CDS_ENSMUSG00000064302_ENSMUST00000049404|mouse|control|control (ssRNA)
# RNA: GGGAGUUCUACAGUCCGACGAUCACAGUUGGUGGGUGAGGUCAGGGGGCUGGUCCUGCUGCUGGGGUGGCGGGAAGGUGUCCGGCCAAUUGUAUUGCUUGGAGAUCCCACACCGGUGUUACUGGAGUUCUUGAGGUGGUUAUGCAACAGAGGAUUGAGCAUCA
# B14: chr1:38489359:38489360:+_ENSG00000183520_ENST00000537711|hu_hu|FALSE|FALSE (ssRNA)
# RNA: GGGAGUUCUACAGUCCGACGAUCUAGUUAUGGUUACAAACCGGAAAACCAUGCCAUUUGGAGUAAUGGAAUUUGAAGUUACUAGAAAACGACAACAGAUUUUUGAUACAGAAUGACAAGGCUUAUCUAUAACACGUCAACGUUCAACAGAGGAUUGAGCAUCA
# B15: chr10:1063573:1063574:+_ENSG00000107937_ENST00000545048|hu_mus|motif|central (ssRNA)
# RNA: GGGAGUUCUACAGUCCGACGAUCACUAUGUUUUUGCUGGGUGUUUACUUUGGAUAAAAUGGUUGAAGUUACAAUGAUACAUUGUACGGCAGGUUUAGAAAAUAAUUUAAGAGUAGUUUAAGCUCUGAUAAACCCUAAAUGUAACAACAGAGGAUUGAGCAUCA
# B16: chr12:36856662:36856663:-_ENSMUSG00000020547_ENSMUST00000020856|mus_hu|motif|central (ssRNA)
# RNA: GGGAGUUCUACAGUCCGACGAUCAAGCAUACUGCCAGCCACCAGGAUAUCGAAGAGUGUGUCUGCAUAGCGACGAUAAUCGGAUCUUGAGCCUGUAGAGUCCAGAAAUUUGGCUACAGCUUCAAGGUCAUCACCAGCCUCAUUCAACAGAGGAUUGAGCAUCA
# B17: chr12:79975562:79975563:+_ENSMUSG00000021116_ENSMUST00000071230|mus_hu|FALSE|FALSE (ssRNA)
# RNA: GGGAGUUCUACAGUCCGACGAUCGAAUUUGUCUUCACAUUUGAUUGCUUCCUCUGGAGAAACUCUUCUUUUUGACAAAUCAAUAUAUCCUUUUUCUUUGUCCACCCUAAUGACAACCACACACUCAUUCCUGCCAAUUCGGAUCAACAGAGGAUUGAGCAUCA
# B18: chr19:53983630:53983631:+_ENSMUSG00000024975_ENSMUST00000025931|mus_mus|FALSE|FALSE (ssRNA)
# RNA: GGGAGUUCUACAGUCCGACGAUCAUUUCCAUUUAUUUCAUUCUUUAUUUCUUCAGUGCCAGCAUUUUCUUCAUCUCCAGAAAAGAGAGAGUCGCUUAAAUUGUCAGGGUCAGUGGGGUUCACAUUCAGUGUCUGCUCAUUUUCCAACAGAGGAUUGAGCAUCA
# B19: 21043593_21043713_273_3pUTR_ENSMUSG00000033382_ENSMUST00000025177|mouse|control|control (ssRNA)
# RNA: GGGAGUUCUACAGUCCGACGAUCUAAUCACAUUAGCGACUAAUCCUUCUGCAGGCUGGCUGCCAGAAACAACAUCAUUCAAAAGCUUCCCAAUGGCUCCCGGCUGAGGUGGCUGGGUGACAAUGUUGCUUACUGCUAUCUUCACAACAGAGGAUUGAGCAUCA
# B20: chr21:32491406:32491407:-_ENSG00000156299_ENST00000286827|hu_hu|FALSE|FALSE (ssRNA)
# RNA: GGGAGUUCUACAGUCCGACGAUCCAUAGUAUUUUAAACCCUUCUUAGGAAGUGGACAUUGUGACAUGGGAAAAGAAAAAGCUAUAAACCUUUUUUUAAAAAAAAAAAAAAAAUUGAAAGUGCUAUAACUUGUUUUUCUUCUUACAACAGAGGAUUGAGCAUCA
# B21: chr10:80642667:80642668:+_ENSMUSG00000034994_ENSMUST00000047864|mus_mus|FALSE|FALSE (ssRNA)
# RNA: GGGAGUUCUACAGUCCGACGAUCCACUCUACCAAAGGCAUAGAAGCGGCCUUUGUCAGAGGUUGGCACCAUCUUGGAAAUGUACAUCAUAAGUGGGCCUUUGGGGUCGCAGCUCUUAAUACCCAUGGCGGCCUCAUCGUCGGGCAACAGAGGAUUGAGCAUCA
# B22: chr19:5716489:5716490:-_ENSMUSG00000024937_ENSMUST00000075606|mus_hu|FALSE|FALSE (ssRNA)
# RNA: GGGAGUUCUACAGUCCGACGAUCCACCAUGUCCGCGGGCUCCAGCAGCCGCGACACGCCCAGAGCCGCGAAGCCAUCGAAGGCCUGCUUGUUGUUCUGCUUGAUGUUGAGUGGGUCUAGCGAGGCAUAGUCAAUCUUGUCUGGCAACAGAGGAUUGAGCAUCA
# Molecular target: T1, UNK ZnF1-3 (human, UniProt Q9C0B0 31-174)
# T1 sequence: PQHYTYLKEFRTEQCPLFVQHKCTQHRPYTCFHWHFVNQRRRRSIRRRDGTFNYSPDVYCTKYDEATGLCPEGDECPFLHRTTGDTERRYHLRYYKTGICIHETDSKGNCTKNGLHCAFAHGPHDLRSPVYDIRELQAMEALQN
# Experiment: nsRBNS (natural sequence RNA bind-n-seq); RBNS binding buffer (assumed for nsRBNS): 25 mM Tris pH 7.5, 150 mM KCl, 3 mM MgCl2, 0.01% Triton X-100, 500 ug/ml BSA, 20 U/ml SUPERase-In, 4 C; UNK is unkempt and MSI1 is Musashi-1; names of the RNAs are library labels; protein concentration not given here; high values mean tight binding
row,Binder,binding signal [enrichment R]
1,B1,2.19
2,B2,0.667
3,B3,0.692
4,B4,0.637
5,B5,1.07
6,B6,1.35
7,B7,1.38
8,B8,1.05
9,B9,0.791
10,B10,0.796
11,B11,0.625
12,B12,0.763
13,B13,1.24
14,B14,1.06
15,B15,1.36
16,B16,1.06
17,B17,0.71
18,B18,0.782
19,B19,1.01
20,B20,1.83
21,B21,1.23
22,B22,0.638
